In all, about 1,400 sequences were measured (“thermal melting temperature (Tm) of peptide-HLA complex”: median about 60, lowest 2% from about 45 on). The list shows a part of the results.
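Note: cell lysates heated 10 min at 37–73 °C, remaining pHLA pulled down with pan-class I antibody, peptides quantified by DIA-MS versus 37 °C, Tm where half the complex is lost.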

This experiment addresses HLA-B*07:02. In words: thermal melting temperature (Tm) of peptide-HLA complex; higher = more thermostable pHLA complex. The note with it: C1R-B*07:02.
With APSGGRLLSA, the thermal melting temperature is 60.1 °C.

As for RPYAAGGKKL, the thermal melting temperature is 57.8 °C.

NPDIMRQTL showed a thermal melting temperature of 51.9 °C.

Consider APKPSSRPSL, for which the thermal melting temperature is 54.5 °C.

EPRSGEQVPL displayed a thermal melting temperature of 55.2 °C.

Take IPTKKSQVF: the thermal melting temperature was found to be 58.9 °C.

In turn, SPREMVAQFL displayed a thermal melting temperature of 59.1 °C.

For the sequence LPMGALPQGPM, the thermal melting temperature came to 56.6 °C.

Turning to AASKERSGVSL, the thermal melting temperature came out at 62.6 °C.

TPHLRNLAV registered a thermal melting temperature of 60 °C.

In the case of RPQASALEL, the thermal melting temperature was 59.5 °C.

MPFRGYAVL had a thermal melting temperature of 60.3 °C.

IPGGLRAAT returned a thermal melting temperature of 57.8 °C.

Turning to APKRPPSAFF, the thermal melting temperature is 62 °C.

In turn, LPDIKVLTL displayed a thermal melting temperature of 56.7 °C.

LPRSINTDTL had a thermal melting temperature of 58.5 °C.

For the origin of these results see the supplement of paper PMC7726561.
